Test results: PubChem BioAssay AID2676 (National Center for Advancing Translational Sciences (NCATS), 2010)
Screen size: about 370,000 compounds; about 1,100 (0.3%) were called active. Inconclusive means that the source gave no clear call. Such entries were picked first, then a sample of the others. Calls come from the whole dose curve; as a rule, active = well fitted activation curve with a large enough effect; inconclusive = small, poorly fitted or top-dose-only effect; inactive = flat fitted curve, though single readings scatter. Where the call is inconclusive, the potency comes from a doubtful curve fit.

target: Relaxin receptor 1 (Homo sapiens) (UniProt Q9HBX9); assay: qHTS Assay for Agonists of the Relaxin Receptor RXFP1; settings: HEK293T-RXFP1 cAMP TR-FRET, 30 min; series mostly up to 57.5 µM; note: nearly all actives have a fitted effect of over 60% in size
Summary of the method: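 cAMP rise read by TR-FRET after 30 min, 37C compound exposure (up to 58 uM) in RXFP1-transfected HEK293 cells with Ro 20174 present. EC50 from Hill-equation fits, with 29 nM porcine relaxin as 100% and buffer as basal.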
Potency is the fitted concentration of half-maximal effect; tags give direction and shape of the fitted curve.

UniProt Q9HBX9, sequence (Q9HBX9 whole entry, looked up): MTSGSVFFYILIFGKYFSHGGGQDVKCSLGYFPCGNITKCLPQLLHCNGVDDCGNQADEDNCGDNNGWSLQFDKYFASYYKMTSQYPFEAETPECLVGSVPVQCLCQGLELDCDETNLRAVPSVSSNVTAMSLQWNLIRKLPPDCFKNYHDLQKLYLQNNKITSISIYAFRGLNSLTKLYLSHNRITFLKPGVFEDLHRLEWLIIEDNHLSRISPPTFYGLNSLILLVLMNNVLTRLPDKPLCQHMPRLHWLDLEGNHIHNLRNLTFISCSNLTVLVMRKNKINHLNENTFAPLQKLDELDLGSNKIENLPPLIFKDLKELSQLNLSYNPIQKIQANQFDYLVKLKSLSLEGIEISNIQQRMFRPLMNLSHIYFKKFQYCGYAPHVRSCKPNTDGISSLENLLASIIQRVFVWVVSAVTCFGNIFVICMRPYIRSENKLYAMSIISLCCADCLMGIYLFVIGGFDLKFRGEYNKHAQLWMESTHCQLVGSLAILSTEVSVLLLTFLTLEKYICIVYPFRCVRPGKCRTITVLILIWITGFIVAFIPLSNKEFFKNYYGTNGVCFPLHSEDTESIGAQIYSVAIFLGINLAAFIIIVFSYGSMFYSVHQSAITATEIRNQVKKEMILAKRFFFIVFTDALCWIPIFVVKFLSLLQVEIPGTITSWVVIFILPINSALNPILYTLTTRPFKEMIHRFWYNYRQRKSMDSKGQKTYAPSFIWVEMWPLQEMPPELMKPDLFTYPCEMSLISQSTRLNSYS

Compound	Potency
Cc1ccc2nc(COc3cccc(NC(=O)c4ccccc4Cl)c3)cc(=O)n2c1	inconclusive: 39.8 µM [activator, single point]
COc1ccc(Nc2ccc(OC)cc2)cc1	inactive
Cc1c(Cl)cccc1NC(=O)CCCN1C(=O)c2cccnc2C1=O	inconclusive: 25.1 µM [activator, partial curve]
COc1ccc(S(=O)(=O)N2CCOCC2)cc1NC(=O)COC(=O)C1CCC1	inactive
Cc1ccc(S(=O)(=O)N(Cc2cc3cc4c(cc3[nH]c2=O)OCCO4)CC2CCCO2)cc1 (stereo not given)	inconclusive: 25.1 µM [activator, single point]
COc1ccc(C(=O)Nc2ccc(NC(=O)c3cc(OC)c(OC)c(OC)c3)cn2)cc1	inconclusive: 39.8 µM [activator, single point]
COc1cc(/C=c2\sc3nc(=O)c(-c4ccccc4)nn3c2=O)ccc1OCCC(C)C	inconclusive: 39.8 µM [activator, single point]
Cc1ccc(C)c2nc(SCC(=O)NCc3cccs3)c(C#N)cc12	inconclusive: 7.94 µM [activator, partial curve]
COC(=O)c1cccnc1-n1c(=O)c2cccnc2n(CC(=O)Nc2cccc(C)c2)c1=O	inconclusive: 39.8 µM [activator, single point]
Cc1ccc(NC(=O)c2oc3ccc(S(=O)(=O)N4CCOCC4)cc3c2C)c(C)c1	inconclusive: 39.8 µM [activator, single point]
Cc1ccc2nc(N3C(=O)C(O)=C(C(=O)c4ccc(C)o4)C3c3ccc(O)cc3)sc2c1 (stereo not given)	inconclusive: 25.1 µM [activator, partial curve]
COc1ccc2c(c1)c1c(c(=O)n(-c3ccc(OC)c(OC)c3)c(=O)n1Cc1ccc(F)cc1)n2C	inconclusive: 35.5 µM [activator, single point]
O=C(c1cc2cc(Cl)ccc2[nH]1)N1CCc2ccccc2C1	inconclusive: 39.8 µM [activator, single point]
COc1ccc2cc(C#N)c(SCC(=O)Nc3nonc3C)nc2c1	inconclusive: 28.2 µM [activator, single point]
Cc1ccccc1CCNC(=O)C1CCN(c2nc3ccccc3nc2C(F)(F)F)CC1	inconclusive: 39.8 µM [activator, single point]
O=C(CSc1nnc2ccccn12)NCCc1ccc(F)cc1	inconclusive: 22.4 µM [activator, partial curve]
CNc1oc(-c2ccc(F)cc2)nc1S(=O)(=O)c1ccccc1	inactive
Cc1csc2c(=O)sc(NC(=O)c3ccco3)nc12	inconclusive: 39.8 µM [activator, single point]
Cc1cc(=O)n(Cc2cccc(F)c2)c2c1c(C)nn2-c1cccc(F)c1	inconclusive: 39.8 µM [activator, single point]
CCCn1c(C)cs/c1=N\C(=S)Nc1ccccc1	inconclusive: 35.5 µM [activator, single point]
O=C(/C=C/c1ccco1)N(Cc1ccc(Cl)cc1)C1CCS(=O)(=O)C1 (stereo not given)	inactive
O=c1c2ccccc2[nH]c(=S)n1Cc1ccc2c(c1)OCO2	inconclusive: 39.8 µM [activator, single point]

Compound	Potency
CC(C)Oc1ccc(/C(O)=C2/C(=O)C(=O)N(Cc3cccnc3)C2c2ccco2)cc1 (stereo not given)	inconclusive: 20 µM [activator, partial curve]
CNC(=O)Cn1c(=O)c2cccn2c2ccc(F)cc21	inconclusive: 20 µM [activator, partial curve]
COc1cccc(OCc2cc(=O)n3c(-c4ccccc4)csc3n2)c1	inconclusive: 39.8 µM [activator, single point]
CCOC(=O)CSc1nc(-c2ccc(Cl)cc2)cc(C(F)(F)F)c1C#N	inconclusive: 4.47 µM [activator, full curve]
Cc1ccc(CNC(=O)CSc2c3c(nc4cc(Cl)ccc24)CCCC3)cc1	inconclusive: 35.5 µM [activator, single point]
Cc1cc(NS(=O)(=O)c2ccc(NC(=O)COc3ccc(Cl)cc3)cc2)no1	inactive
COC(=O)c1c(-c2cccs2)csc1NC(=O)c1ccc(OC)c(OC)c1	inconclusive: 17.8 µM [activator, partial curve]
CCNC(=O)C1CCN(c2nnc(C)c3c(C)n(-c4ccc(OC)cc4)nc23)CC1	inconclusive: 31.6 µM [activator, partial curve]
CCOC(=O)Nc1ccc2c(CN(C)Cc3ccc(F)cc3)cc(=O)oc2c1	inconclusive: 25.1 µM [activator, single point]
CCc1nnc(NC(=O)CSc2nc3cc(OC)ccc3cc2C)s1	inconclusive: 31.6 µM [activator, single point]
Cc1cc(C)cc(NC(=O)COC(=O)c2ccc3c(c2)OCCO3)c1	inconclusive: 35.5 µM [activator, single point]
CCN1CCN(Cc2c(O)ccc3c(=O)c(Oc4ccccc4Cl)c(C(F)(F)F)oc23)CC1	active: 31.6 µM
S=c1nc(-c2ccccc2)[nH]c2ccc(Br)cc12	inconclusive: 15.8 µM [activator, partial curve]
Cc1cc2c(cc3c(SCc4ccc(Cl)cc4)nnc(C)n32)o1	active: 14.1 µM
O=C(O)c1cc(S(=O)(=O)O)cc(Nc2c3ccccc3nc3ccccc23)c1O	inconclusive: 39.8 µM [activator, single point]
COc1ccccc1-c1cc(NC(=O)COc2ccccc2Cl)n(-c2ccccc2)n1	inconclusive: 35.5 µM [activator, single point]
O=C(O)C1Cc2ccccc2CN1C(=O)CSc1nnc2ccccn12 (stereo not given)	active: 35.5 µM
CCOc1ccc(-c2c(C#N)c(N)nc3c2c(=O)n(C)c(=O)n3C)cc1OC	inconclusive: 35.5 µM [activator, single point]
CN(C(=O)c1ccc2c(c1)N(Cc1ccccc1F)C(=O)c1ccccc1S2)C1CCCCC1	inactive
Cc1cc(C)cc(OCc2cc(=O)n3cc(C)sc3n2)c1	inconclusive: 25.1 µM [activator, single point]
O=C(Nc1ccc2oc(-c3ccncc3)nc2c1)c1ccccc1F	inconclusive: 31.6 µM [activator, single point]
O=C(O)C1CCC(Cn2c(SCc3cc(=O)n4cc(Br)ccc4n3)nc3ccsc3c2=O)CC1 (stereo not given)	active: 8.91 µM

Compound	Potency
CCc1ccc(NC(=O)CSc2nc(-c3ccccc3)c(C#N)c(=O)[nH]2)cc1	active: 25.1 µM
CC(NC(=O)c1cc(-c2cccnc2)nc2ccc(Br)cc12)C1CCCO1 (stereo not given)	inconclusive: 20 µM [activator, partial curve]
O=C(Nc1ccc(N2CCN(CCOc3ccc(Cl)cc3)CC2)c(C(=O)O)c1)c1ccc(F)cc1	inconclusive: 39.8 µM [activator, single point]
O=C1C(Nc2ccccc2)=C(N2CCCCC2)C(=O)c2ccccc21	inactive
COc1ccc(CNC(=O)CSc2nc3ccsc3c(=O)n2Cc2ccccc2Cl)cc1	inconclusive: 28.2 µM [activator, partial curve]
NC(=O)c1ccc(NC(=O)CSc2nnc(-c3ccccn3)n2N)cc1	inconclusive: 39.8 µM [activator, single point]
O=C1OCC/C1=C\c1ccc(O)cc1	inactive
CCOC(=O)c1sc(NC(=O)c2cc3c(s2)CCC(C)C3)nc1C (stereo not given)	inconclusive: 39.8 µM [activator, single point]
CCOC(=O)c1cc2c(=O)n3ccccc3nc2n(CCCOC)c1=NC(=O)C(C)(C)Oc1ccc(Cl)cc1	inconclusive: 35.5 µM [activator, single point]
COc1ccccc1Oc1c(C)oc2c(CN3CCN(CCO)CC3)c(O)ccc2c1=O	inactive
COC(=O)c1ccc(Cn2cc(/C=C\[N+](=O)[O-])c3ccccc32)o1	inactive
Cc1nc(-c2ccc(F)cc2)c(CC(=O)N(C)CC(=O)Nc2ccccc2Cl)s1	inactive
Cc1cc(C)cc(NC(=O)CSc2nnc(NC(=O)C3CC3)s2)c1	inconclusive: 39.8 µM [activator, single point]
Cc1ccc2c(c1)c1c(c(=O)n(-c3ccccc3C)c(=O)n1CC(=O)c1ccc(Cl)cc1)n2C	inconclusive: 35.5 µM [activator, single point]
O=S(=O)(c1ccc(Cl)cc1)c1nnn2c1nc(NC1CCCCC1)c1sccc12	inconclusive: 35.5 µM [activator, single point]
Cc1cccc(CSc2nc(=O)c3c(n2C)NC(=O)CC3c2cc(F)cc(F)c2)c1 (stereo not given)	inconclusive: 39.8 µM [activator, single point]
CC(C)OCCCNC(=O)c1ccc(Cn2c(=O)c3cccn3c3cccnc32)cc1	inconclusive: 39.8 µM [activator, single point]
O=C(CCn1c(=O)c2sccc2n(CC(=O)Nc2ccccc2)c1=O)NCc1ccccc1Cl	inconclusive: 39.8 µM [activator, single point]
CCOC(=O)c1nnn2c1nc(N1CCOCC1)c1ccccc12	inconclusive: 25.1 µM [activator, partial curve]
CCc1nnc(SCC(=O)Nc2cc(Cl)c(OC)cc2OC)c2cc3oc(C)cc3n12	inconclusive: 28.2 µM [activator, partial curve]
Cc1cc(-c2ccc(Br)s2)nc(-n2cccc2)n1	inconclusive: 17.8 µM [activator, partial curve]
